Here are results for 109 sequences from the supplement of paper PMC3334620.

Whole data set: some 33,000 sequences, median “E-score (-0.5 to 0.5)” near -0.012, cut for the highest 2% near 0.27. Some of the results follow.

The target of this test is T1, Vhr1 (UniProt P40522).
T1 sequence: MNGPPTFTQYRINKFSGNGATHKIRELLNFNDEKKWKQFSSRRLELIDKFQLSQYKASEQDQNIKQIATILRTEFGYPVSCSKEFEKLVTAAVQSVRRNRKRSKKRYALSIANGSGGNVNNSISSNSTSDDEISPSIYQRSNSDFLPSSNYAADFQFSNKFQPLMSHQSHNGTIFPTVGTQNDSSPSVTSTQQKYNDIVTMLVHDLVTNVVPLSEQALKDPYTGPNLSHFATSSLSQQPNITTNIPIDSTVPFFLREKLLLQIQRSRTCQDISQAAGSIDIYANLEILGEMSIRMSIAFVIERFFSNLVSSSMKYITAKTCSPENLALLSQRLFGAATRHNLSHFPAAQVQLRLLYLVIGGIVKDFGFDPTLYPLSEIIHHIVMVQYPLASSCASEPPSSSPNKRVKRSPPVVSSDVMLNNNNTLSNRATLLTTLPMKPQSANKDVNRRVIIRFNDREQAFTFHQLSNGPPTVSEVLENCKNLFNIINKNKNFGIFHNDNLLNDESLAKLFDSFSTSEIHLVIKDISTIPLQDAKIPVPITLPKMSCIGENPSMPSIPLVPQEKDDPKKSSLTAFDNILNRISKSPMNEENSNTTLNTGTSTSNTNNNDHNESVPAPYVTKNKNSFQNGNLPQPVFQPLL
Put plainly: PBM E-score (8-mer binding enrichment) (E-score (-0.5 to 0.5)); higher = stronger / more preferred TF binding; most listed sequences are background and not binding sites. To be noted: protein concentration: 200 nM; construct: GST-full length. In outline: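 Detection of bound protein used fluorescent anti-GST, with scans normalised by masliner. The proteins were GST-tagged yeast transcription factors applied at about 100-200 nM to universal all-10-mer Agilent arrays made double-stranded by primer extension. Each ungapped eight-base word, pooled with its reverse complement, was scored with an E-score from the Universal PBM Analysis Suite.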
Turning to AAAGGTCC, the “PBM E-score” value is -0.195. As to ACCTTGGA, the “PBM E-score” value is -0.166. In the case of AGAGAGTG, the “PBM E-score” value was -0.0862.

On to CTAGTGTC, for which the “PBM E-score” value was -0.0413. With AGGACGTG, the “PBM E-score” value is -0.0296. Take GTTCTCGA: the “PBM E-score” value is -0.183. On to AATTAATT, for which the “PBM E-score” value was -0.19. As to GAAGGTCC, the “PBM E-score” value is -0.076. Turning to GGTCAATA, the “PBM E-score” value amounted to 0.219. Consider ATGGTTCG, for which the “PBM E-score” value came to 0.224. To CGATGGGA belongs -0.0641; to CCAGGGAA, -0.0857.

For GTGTCACA, the “PBM E-score” value was 0.0736.

On to TGGGTTAA, for which the “PBM E-score” value was found to be 0.135. With ACGTTACC, the “PBM E-score” value is -0.0694. Consider ACACCTGG, for which the “PBM E-score” value was determined as 0.174. As for CGTTGATA, the “PBM E-score” value is 0.134. Regarding GGGCCAAA, the “PBM E-score” value was -0.151.

As for GTTCCAGA, the “PBM E-score” value was -0.2. With ATTCAATC, the “PBM E-score” value turned out to be 0.115. Take GCAGCAGC: the “PBM E-score” value was -0.0888. With ACGTACAG, the “PBM E-score” value is -0.0884. With ACGACGCG, the “PBM E-score” value was -0.0401. With CACTGTGG, the “PBM E-score” value turned out to be 0.105. Regarding GCACATCA, the “PBM E-score” value was determined as 0.17. For TAGACTAA, the “PBM E-score” value was -0.099.

For the sequence AGGAGATG, the “PBM E-score” value was found to be 0.131. On to AGTAACAG, for which the “PBM E-score” value was determined as 0.0281. For GACGAATC, the “PBM E-score” value worked out at 0.0723. With AGATACCC, the “PBM E-score” value is 0.0718. Turning to CGCTCATA, the “PBM E-score” value is 0.0591. To AAGCCCGG belongs -0.011. In the case of ACATGAGC, the “PBM E-score” value stood at 0.0844. Consider GAACGATA, for which the “PBM E-score” value was -0.0543.

Turning to CAGACCCC, the “PBM E-score” value is -0.245. Regarding ACCTCTGG, the “PBM E-score” value was -0.162. As for AAACCCTA, the “PBM E-score” value was -0.0524. As for CTCGAAAA, the “PBM E-score” value is -0.111. Regarding CAAAAACG, the “PBM E-score” value stood at 0.00433. For CGGGGGCA, the “PBM E-score” value is -0.141. CAACCAAG: the “PBM E-score” value was -0.00427. To CACCGCCA belongs 0.242; to GCGTCGCC, -0.0857. As for CAATTGCC, the “PBM E-score” value is -0.139. Turning to ATGCCCAC, the “PBM E-score” value stood at 0.0501. Turning to CGGTTCTA, the “PBM E-score” value is -0.0571. To CTCCAACC belongs 0.0667; to TAGAGAGA, -0.0877; to CCCCAGGG, -0.0705. To ACAAATCA belongs 0.125; to AGAGATGG, -0.0539; to GTGATAAC, -0.125. For GGATCACA, the “PBM E-score” value was determined as 0.06. For GATAAATA, the “PBM E-score” value is 0.0772. With GGCTAAAC, the “PBM E-score” value came to 0.00088. As for TGGTTGAA, the “PBM E-score” value was -0.0692. To CACCGAAG belongs 0.235; to ATGATCCC, 0.141. For the sequence AACGTCAC, the “PBM E-score” value is -0.0246. To GGGCGCAA belongs 0.0104. Consider GGATTATA, for which the “PBM E-score” value worked out at 0.0107.

AGTTCGAG: the “PBM E-score” value amounted to 0.0333. To AAATTCAC belongs -0.0588. Take CAACGACA: the “PBM E-score” value worked out at 0.121. As for CCTTAGTA, the “PBM E-score” value was -0.0427. In the case of AACTCCGC, the “PBM E-score” value is -0.0635.

On to CAGACCTA, for which the “PBM E-score” value is -0.0734. Regarding CGCAAGGC, the “PBM E-score” value amounted to 0.00435.

In the case of ATCCTACA, the “PBM E-score” value amounted to 0.0126. Turning to CGGAGCAC, the “PBM E-score” value was 0.0672.

Regarding ATCATGCG, the “PBM E-score” value was 0.283. Turning to ACGGGGAG, the “PBM E-score” value came out at 0.0405.

As to CGTAACAG, the “PBM E-score” value came to 0.0945. In the case of ATTCAAAG, the “PBM E-score” value was -0.137.

With CGCGGGTC, the “PBM E-score” value amounted to 0.209. Consider CCGGCCCC, for which the “PBM E-score” value is -0.0954. As to GTTATACA, the “PBM E-score” value stood at 0.108.

Take ACCTTGAG: the “PBM E-score” value was -0.0655. For GGGTAAAC, the “PBM E-score” value was 0.0194.

For the sequence GAACAGTA, the “PBM E-score” value was found to be 0.0579. To ACCAGGGT belongs 0.135; to CAGAATGG, -0.0231. As to AAATGTGT, the “PBM E-score” value was 0.203. Take AGACGTCT: the “PBM E-score” value was -0.286. Consider AGCGAATA, for which the “PBM E-score” value is -0.00991. As for TCAATGCA, the “PBM E-score” value was -0.1. To CTGATGTA belongs 0.215; to AACTGTAC, -0.211. As for GTGAATCA, the “PBM E-score” value was found to be 0.394.

With ACGCAGGG, the “PBM E-score” value was found to be 0.00883. For AAGCGGGG, the “PBM E-score” value was -0.113. To CGTTTAAG belongs -0.155; to AGCTCAGC, -0.232; to AACCATCG, 0.261. Turning to AAATTTAC, the “PBM E-score” value is -0.135. GAAAAACC: the “PBM E-score” value was -0.162.

Regarding CTCGGTGC, the “PBM E-score” value was found to be 0.0755.

CGCACTGC: the “PBM E-score” value was 0.0693.

For AAATAGGG, the “PBM E-score” value was -0.0434.

Turning to GGCACTTA, the “PBM E-score” value is -0.179. To CAGTTAGG belongs -0.0792; to AGTCTTAG, 0.052.

In the case of CACAGCTG, the “PBM E-score” value is -0.0522. Turning to CTCACGGC, the “PBM E-score” value was 0.00316. As for ATTGTACC, the “PBM E-score” value was found to be 0.0472. Consider GGTACCGA, for which the “PBM E-score” value was -0.184. Take TACGCCGA: the “PBM E-score” value is -0.0327. To AGGCAGTA belongs -0.0691; to TAACGAAA, -0.0166.
